The other results are listed elsewhere or left out.
B1: PhoQ; a variant is named by its letters at X, in order, P23837 (parent)
chain: MKKLLRLFFPLSLRVRFLLATAAVVLVLSLAYGMVALIGYSVSFDKTTFRLLRGESNLFYTLAKWENNKLHVELPENIDKQSPTMTLIYDENGQLLWAQRDVPWLMKMIQPDWLKSNGFHEIEADVNDTSLLLSGDHSIQQQLQEVREDDDDAEMTHSVAVNVYPATSRMPKLTIVVVDTIPVELKSSYMVWSWFIYVLSANLLLVIPLLWVAAWWSLRPIEALAKEVRELEEHNRELLNPATTRELTSLVRNLNRLLKSERERYDKYRTTLTDLTHSLKTPLXXLQXXLRSLRSEKMSVSDAEPVMLEQISRISQQIGYYLHRASMRGGTLLSRELHPVAPLLDNLTSALNKVYQRKGVNISLDISPEISFVGEQNDFVEVMGNVLDNACKYCLEFVEISARQTDEHLYIVVEDDGPGIPLSKREVIFDRGQRVDTLRPGQGVGLAVAREITEQYEGKIVAGESMLGGARMEVIFGRQHSAPKDE

Variants of: B1
Test: enrichment ratio after two sorts for PhoP signalling (ratio (wild type AVST 3.29)); higher = more functional
Conditions: with PhoP (E. coli)

Variant | enrichment ratio
SLLS | 6.35
HTTY | ≤ 0.25
IPWL | ≤ 0.25
KHER | ≤ 0.25
YTGS | ≤ 0.25
HMTC | ≤ 0.25
YLDR | ≤ 0.25
RQDW | ≤ 0.25
FGCI | 7.38
RKTD | ≤ 0.25
ANEL | ≤ 0.25
YQNN | ≤ 0.25
KFYQ | ≤ 0.25
YKVH | ≤ 0.25
HRPI | ≤ 0.25
FYIK | ≤ 0.25
PWDK | ≤ 0.25
RDGP | ≤ 0.25
IAGG | ≤ 0.25
NTRP | ≤ 0.25
VCFD | ≤ 0.25
IALP | ≤ 0.25
TLWI | ≤ 0.25
IDKK | ≤ 0.25
NVMV | ≤ 0.25
EHEF | ≤ 0.25

Variant | enrichment ratio
EYFH | ≤ 0.25
TETM | 22.4
EKGL | ≤ 0.25
FLER | ≤ 0.25
EKSF | ≤ 0.25
HYSI | ≤ 0.25
YSRI | ≤ 0.25
ANLP | ≤ 0.25
GREI | ≤ 0.25
GPST | ≤ 0.25
GEAG | 3.49
MPLR | ≤ 0.25
MQNI | ≤ 0.25
LQPC | ≤ 0.25
FRCY | ≤ 0.25
FSCA | ≤ 0.25
LINM | ≤ 0.25
LWMD | ≤ 0.25
WGNR | ≤ 0.25
VQIF | ≤ 0.25
VTFQ | ≤ 0.25
ALHA | ≤ 0.25
SKKN | ≤ 0.25
GDVQ | ≤ 0.25
WNWR | ≤ 0.25
TRWH | ≤ 0.25

Variant | enrichment ratio
DGDH | ≤ 0.25
QATI | ≤ 0.25
PPGF | ≤ 0.25
RGSL | ≤ 0.25
ARKR | ≤ 0.25
PYCG | ≤ 0.25
YRMH | ≤ 0.25
PVWM | ≤ 0.25
TKEF | ≤ 0.25
FTDI | ≤ 0.25
RYKG | ≤ 0.25
NNFI | ≤ 0.25
DETF | ≤ 0.25
ADRQ | ≤ 0.25
RFGA | ≤ 0.25
DCFH | ≤ 0.25
FHGW | ≤ 0.25
FGDP | ≤ 0.25
LRKK | ≤ 0.25
DQTH | ≤ 0.25
IIGT | ≤ 0.25
RQQD | ≤ 0.25
PSIG | ≤ 0.25
VELT | 4.93
